Molecules are shown by their SMILES. The full ranking holds about 110,000 compounds; the median of “z-score” is about -0.1, and the highest 2% start at about 2. The list shows a part of the results. Activity calls are given as the source filed them.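 How the source made its calls: active means z-score in the third read window above 3 or below -3; inactive means the rest.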

The experiment addresses Metabotropic glutamate receptor 8 (Rattus norvegicus) (UniProt P70579). The experiment in a line: mGluR8 Gi/Go-coupled signaling modulation – cell-based, rat, thallium flux, HTS, primary screen (AID 488969). The settings on record: HEK293 rat mGluR8, GIRK (G protein-gated inwardly rectifying potassium channel) thallium flux, FluoZin2; at 10 µM; stronger effect = higher value; submaximal glutamate (EC20) added with thallium.
Sequence of UniProt P70579 (P70579 whole entry, looked up): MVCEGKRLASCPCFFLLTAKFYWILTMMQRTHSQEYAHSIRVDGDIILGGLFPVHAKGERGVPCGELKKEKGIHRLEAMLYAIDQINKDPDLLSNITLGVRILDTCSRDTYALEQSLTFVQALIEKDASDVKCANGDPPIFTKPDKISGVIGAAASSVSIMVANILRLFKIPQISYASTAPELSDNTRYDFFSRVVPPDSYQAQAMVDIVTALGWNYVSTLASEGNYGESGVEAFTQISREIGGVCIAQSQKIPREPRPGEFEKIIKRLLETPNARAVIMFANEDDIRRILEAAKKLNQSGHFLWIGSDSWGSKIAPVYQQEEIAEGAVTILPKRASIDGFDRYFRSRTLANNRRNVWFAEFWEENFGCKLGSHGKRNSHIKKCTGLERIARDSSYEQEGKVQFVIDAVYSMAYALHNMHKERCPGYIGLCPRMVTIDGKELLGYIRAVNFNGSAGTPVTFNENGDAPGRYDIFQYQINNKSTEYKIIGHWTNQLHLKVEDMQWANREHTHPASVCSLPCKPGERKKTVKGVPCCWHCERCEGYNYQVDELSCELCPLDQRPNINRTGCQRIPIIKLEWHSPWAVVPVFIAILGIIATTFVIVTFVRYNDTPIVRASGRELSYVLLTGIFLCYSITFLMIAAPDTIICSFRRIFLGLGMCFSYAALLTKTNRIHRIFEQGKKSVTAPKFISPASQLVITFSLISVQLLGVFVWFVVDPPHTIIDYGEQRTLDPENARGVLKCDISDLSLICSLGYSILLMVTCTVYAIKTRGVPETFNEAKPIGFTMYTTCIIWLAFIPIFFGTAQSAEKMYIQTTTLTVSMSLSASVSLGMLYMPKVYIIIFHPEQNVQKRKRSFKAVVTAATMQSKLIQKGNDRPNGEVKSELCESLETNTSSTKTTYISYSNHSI
For `C/C(=N\NC(=O)C1(C)CC1(Br)Br)c1cccc(NC(=O)C(C)(C)C)c1` (centres undefined), the z-score was -0.28.
The compound `Cc1ccc2nc(-c3cccc(N)c3)oc2c1` had a z-score of -0.271.
The value for `O=C(Cc1csc(Nc2nc(=S)[nH]c3ccccc23)n1)NCc1cccc(Cl)c1` was active: 6.85.
The compound `COc1cc(C(c2nnnn2C2CCCC2)N2CCc3ccccc3C2)ccc1O` (centres undefined) gave a z-score of -0.404.
The value for `COC(=O)c1ccc(NC(=O)c2ccccc2NS(C)(=O)=O)cc1` was -0.151; that for `O=C(COc1ccc(C(=O)c2ccccc2)cc1)NCC(=O)Nc1ccccc1Br` was -0.161; that for `COC(=O)Cc1c(C)nc2nc[nH]n2c1=O` was -0.0384.
In turn, `COc1ccc(/C=C/C(=O)NC2CCCCCC2)cc1S(=O)(=O)N1CCOCC1` registered a z-score of -0.0462.
To `CN1C(=O)/C(=C2\SC(=S)N(C(CCC(=O)O)C(=O)O)C2=O)c2ccccc21` (centres undefined) belongs -0.14; to `Cc1ccc(/C=C/C(=O)NC(=S)N2CCN(C)CC2)cc1`, -0.241.
To `O=C(Nc1nccs1)c1cnccn1` belongs -0.96; to `Cc1ccc(S(=O)(=O)N2CCC(C(=O)Nc3ccc4c(c3)OCO4)CC2)cc1`, -0.0915; to `CC1(C)CC(NC(=O)c2ccc3c(c2)OCO3)CC(C)(C)N1`, -0.0195.
The value for `Cc1cc(S(=O)(=O)NCC(C)C)ccc1OCC(=O)NCc1ccccn1` was 0.417; that for `CN(C)c1ccc(CNn2cnnc2)cc1` was -0.119; that for `Cc1cc(NS(=O)(=O)c2ccccc2)cc(Cl)c1O` was -0.424.
In turn, `Cc1ccc(S(=O)(=O)NC(C)(C)CSc2nnc(N)s2)cc1` returned a z-score of -0.314.
To `CCOC(=O)CSc1ncnc2c(C(=O)OCC)c3n(c12)CCC3` belongs -0.147; to `Cc1ccccc1C(=O)NC1CCN(CC(=O)Nc2nccs2)CC1`, 0.51.
To `O=C(NCc1ccco1)C1CCCCN1S(=O)(=O)c1ccc(F)cc1` (centres undefined) belongs -0.0967; to `CCOC(=O)c1c(NC(=O)c2cccs2)sc2c1CCN(C(=O)OCC)C2`, -0.63; to `O=C(C(Cc1ccccc1)n1cccc1)N1CCN(Cc2ccccc2)CC1` (centres undefined), -0.876.
To `O=C(COC(=O)c1nc(Cl)ccc1Cl)c1ccc(Cl)s1` belongs 0.688.
Take `CCc1c(O)nc(SCC(=O)Nc2ccccc2C)[nH]c1=O`: the z-score is -0.0542.
To `Cc1ccc(SCc2[nH]nc3c2C(C(C)C)C(C#N)=C(N)O3)cc1` (centres undefined) belongs 0.428; to `Cn1c(CSc2nc3ccccc3n2C)nc2ccccc21`, 0.502.
Compound `CC(C)c1ccccc1NC(=O)c1ccccc1NC(=O)C1CCCCC1` returned a z-score of 0.916.
The value for `O=C(NCc1ccccc1)c1c[nH]c2ccc(S(=O)(=O)Nc3ccc4c(c3)OCCO4)cc2c1=O` was 1.23; that for `COC(=O)c1cc(-c2ccc(OC)c(OC)c2)on1` was -0.638; that for `O=C(CSc1nnc(-c2ccco2)n1-c1ccccc1)N1CCc2ccccc21` was 0.00192.
To `COc1cccc(OC)c1C(=O)NNC(=O)c1cccc(COc2ccc3c(c2)CCC3)c1` belongs -0.245.
The value for `O=C(CN1CCOCC1)Nc1ccc(Br)cn1` was -0.281.
In the case of `Cc1[nH]n(-c2ccc(Cl)cc2)c(=O)c1/C=N/c1nnc(-c2ccccc2)s1`, the z-score was active: 8.81.
The value for `O=C(Nc1ccc(N2CCN(C(=O)c3ccco3)CC2)c(Cl)c1)c1c(F)c(F)c(F)c(F)c1F` was -0.334; that for `Cc1ccc(OCC(=O)Nc2ccc(F)cc2)cc1C` was 1.18; that for `COc1ccc2nc(SCc3ccccc3C)nc(C)c2c1` was -0.26.
To `S=C(NCc1ccccc1)NCC1COc2ccccc2O1` (centres undefined) belongs 0.508; to `O=Cc1ccccc1OCCOc1ccccc1C=O`, -0.52; to `COC(=O)c1cc(-c2c[nH]c3ccccc23)n[nH]1`, 0.829.
To `S=C(Nc1ccccc1)Nc1cc(Cl)ccc1Oc1ccccc1` belongs active: 3.43.
Regarding `CCCCCCn1c(O)c(/C=C2\C=NN=C2c2ccccc2)sc1=S`, the z-score is -0.163.
The value for `Cc1ccc(N(CC(=O)Nc2ccccc2-c2ccccc2)S(=O)(=O)c2ccccc2)cc1` was 0.628; that for `COc1ccc(NC(=O)c2ccc(CN3CCN(c4ccccc4)CC3)cc2)cc1OC` was 0.184.
To `O=C(Nc1ccc(S(=O)(=O)Nc2nccs2)cc1)c1cc(-c2ccccc2Cl)nc2ccccc12` belongs -0.275; to `CCC(=O)Nc1ccc(NC(=O)c2ccccc2Cl)nc1`, -0.236; to `CC1CC(C)(C)NC(=S)N1CCCC(=O)N1CCN(c2ccc(F)cc2)CC1` (centres undefined), -0.0952.
The value for `CC1(C)CC(=O)c2cnc(NC(=O)c3ccco3)nc2C1` was -0.0387; that for `Cc1ccc(-c2noc(CCC(=O)NCCN3CCc4ccccc4C3)n2)cc1` was 0.982; that for `COc1ccc(-c2c3c(=O)n(C)c(=O)n(C)c3cn2-c2cc(OC)ccc2OC)cc1` was -1.13.
In turn, `CCCn1c(NC(=O)c2cccc(C)c2C)nc2ccccc21` returned a z-score of -0.121.
In the case of `O=C(CN1C(=O)c2ccccc2C1=O)N1CCCCC1`, the z-score is -0.079.
Take `O=C1CC(c2ccccc2)CC(O)=C1C=NCC1CCCO1` (centres undefined): the z-score is -0.0504.
The value for `O=C(O)CC/C(=C\c1cc([N+](=O)[O-])ccc1Cl)c1nc2ccccc2s1` was -2.59.
To `O=C(O)COc1ccc(/C=C/c2ccc3cccc([N+](=O)[O-])c3n2)cc1` belongs -0.135; to `CN(C)CCNC(=O)Nc1ccc(Cl)c(Cl)c1`, 0.092; to `CCNc1nc(NCC)n2c(SCC(=O)Nc3ccc(C(F)(F)F)cc3[N+](=O)[O-])nnc2n1`, -0.166.
In the case of `CCOc1cccc(-c2nnc(SCC(=O)Nc3cc(OC)cc(OC)c3)n2N)c1`, the z-score is -0.214.
As to `O=[N+]([O-])c1c(C(Cl)Cl)nn(-c2ccccc2)c1N1CCCC1`, the z-score is -0.549.
The value for `CC(C)C(C(=O)Nc1ccc(S(=O)(=O)N2CCOCC2)cc1)N1C(=O)c2ccccc2C1=O` (centres undefined) was -0.0651.
To `COc1ccc([C@H]2[C@H](C(=O)C(C)(C)C)N3N=Cc4ccccc4C3[C@]23N=C(c2ccccc2)OC3=O)cc1OC` (some centres undefined) belongs 1.03; to `NS(=O)(=O)c1ccc(NC(=S)NC(=O)c2ccc(-c3ccccc3)cc2)cc1`, -0.131; to `CCOC(=O)c1cc2sccc2n1Cc1ccc(C#N)cc1`, -0.149.
The value for `O=C(NNc1ccccc1)C(=O)N1CCCCC1` was -0.0288.
Consider `CC(c1nnc(SCC(=O)Nc2sccc2C#N)n1-c1ccc(Cl)cc1)N(C)C` (centres undefined), for which the z-score stood at 0.0165.
To `Cc1ccc(-n2c(SCC3CCCCO3)nnc2-c2ccco2)cc1` (centres undefined) belongs -0.598; to `c1ccc2c(c1)oc1c(NCCN3CCOCC3)ncnc12`, 0.156.
In turn, `N#CC1=C(SCC(=O)NC2CC2)NC(=O)C(C#N)C12CCCCC2` (centres undefined) came in with a z-score of -0.343.
Compound `CCC(C)[C@H](NC(=O)NC1CCN(Cc2ccccc2)CC1)C(=O)OC` (some centres undefined) displayed a z-score of 0.0464.
To `FC(F)Oc1ccc(/C=N/c2c(-c3ccc(OC(F)F)cc3)nc3n2CCS3)cc1` belongs -0.405.
